Here are results for 51 compounds from paper PMC6919601, “Identification of Plasmodium dipeptidyl aminopeptidase allosteric inhibitors by high throughput screening” (PLoS ONE, 2019).

The structures appear in SMILES notation. The campaign covered roughly 110,000 compounds. About 230 (0.21%) showed an effect of 50% or more. This is one part of the list.
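Also: 30 min substrate incubation versus DMSO and 10 µM JCP410 controls.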

For the assay, the target named is DPAP1 (Plasmodium falciparum, UniProt Q8IIJ9). Nature of the assay: primary screen, percent inhibition; read by cleavage of a fluorogenic dipeptide substrate; higher = more effect of the substance. Details: species or system P. falciparum D10 trophozoite lysates; single well.
Chain of DPAP1 (Q8IIJ9 whole entry, looked up): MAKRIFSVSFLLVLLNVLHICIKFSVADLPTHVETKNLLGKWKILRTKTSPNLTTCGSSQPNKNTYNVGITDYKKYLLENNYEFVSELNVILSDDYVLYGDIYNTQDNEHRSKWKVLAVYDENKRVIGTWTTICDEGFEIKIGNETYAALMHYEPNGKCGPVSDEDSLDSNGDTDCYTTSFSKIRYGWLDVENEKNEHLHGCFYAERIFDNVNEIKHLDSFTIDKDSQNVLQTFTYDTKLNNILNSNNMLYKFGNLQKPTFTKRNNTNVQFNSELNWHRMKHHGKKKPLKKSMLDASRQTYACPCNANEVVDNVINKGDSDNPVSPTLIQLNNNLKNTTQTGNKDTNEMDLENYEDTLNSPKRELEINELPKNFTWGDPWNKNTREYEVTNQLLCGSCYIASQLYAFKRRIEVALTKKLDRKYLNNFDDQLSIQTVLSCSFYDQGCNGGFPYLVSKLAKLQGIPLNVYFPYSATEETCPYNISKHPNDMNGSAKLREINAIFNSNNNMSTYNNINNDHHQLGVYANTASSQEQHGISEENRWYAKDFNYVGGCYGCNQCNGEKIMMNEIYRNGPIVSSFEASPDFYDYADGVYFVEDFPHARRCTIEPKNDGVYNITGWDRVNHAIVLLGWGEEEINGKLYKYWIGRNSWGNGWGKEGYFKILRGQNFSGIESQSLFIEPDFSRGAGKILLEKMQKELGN
Regarding `O=S(=O)(c1ccc(Cl)cc1)c1nc(-c2cccs2)oc1NC1CC1`, the “% Inhibition @ 10 uM” value was found to be 2.02%.

As to `CC(C)C[C@H](NC(=O)c1ccc(Br)cc1Cl)C(=O)NCC#N`, the “% Inhibition @ 10 uM” value was determined as 8.48%.

In the case of `COC(=O)c1ccc(-c2ccco2)n1CC(=O)N1CCC(Cc2ccccc2)CC1`, the “% Inhibition @ 10 uM” value was -5.37%.

For `Cc1ccc(C(=O)Nc2sc3c(c2C(N)=O)CCCCCC3)cc1`, the “% Inhibition @ 10 uM” value came to 2.22%.

For `O=C(COCc1cc(-c2ccc3c(c2)OCO3)on1)N1CCN(c2ccccn2)CC1`, the “% Inhibition @ 10 uM” value is recorded as 0.56%.

Turning to `CCOc1ccccc1C(=O)Nc1ccccc1CC`, the “% Inhibition @ 10 uM” value turned out to be 3.09%.

In the case of `COc1ccc(CC(=O)Nc2cccc(Cl)c2Cl)cc1`, the “% Inhibition @ 10 uM” value is recorded as 0.317%.

Regarding `CCOC(=O)c1[nH]c2ccc(OCc3ccccc3)cc2c1C`, the “% Inhibition @ 10 uM” value came out at 5.98%.

Take `O=S(=O)(c1ccc(-c2cc(C(F)(F)F)no2)s1)N1CC=C(c2ccccc2)CC1`: the “% Inhibition @ 10 uM” value is -0.166%.

Turning to `Cc1nc([N+](=O)[O-])c(NCCO)n1Cc1ccccc1`, the “% Inhibition @ 10 uM” value is on record as -3.77%.

Take `CCOc1ccc(C(=O)Nc2cccnc2)cc1`: the “% Inhibition @ 10 uM” value worked out at 3.65%.

On to `CNC(=O)c1ccc(CSc2nc3cccnc3n2Cc2ccc(OC)cc2)cc1`, for which the “% Inhibition @ 10 uM” value turned out to be 13.8%.

As for `CCc1ccc(OC(C)C(=O)N(Cc2ccc(C)o2)C2CCS(=O)(=O)C2)cc1` (stereo not drawn), the “% Inhibition @ 10 uM” value is -1.11%.

Regarding `NC(=O)C1CCN(C(=O)CCCN2C(=O)C(c3ccccc3)Oc3cccnc32)CC1` (stereo not drawn), the “% Inhibition @ 10 uM” value was -5.07%.

With `COCc1c(C#N)c(S)nc(C)c1[N+](=O)[O-]`, the “% Inhibition @ 10 uM” value was found to be 30.8%.

Regarding `Cc1ccc(S(=O)(=O)Nc2ccc(NS(C)(=O)=O)cc2)cc1`, the “% Inhibition @ 10 uM” value is listed as -7.08%.

As to `Cc1nc2sccn2c1-c1csc(Nc2ccc(C(=O)O)cc2)n1`, the “% Inhibition @ 10 uM” value is reported as -2.89%.

In the case of `O=C(COc1ccccc1)Nc1ccc(Cl)cc1`, the “% Inhibition @ 10 uM” value is -2.25%.

Take `Cc1ccccc1CNC(=O)C1CCCN(c2nnc(N3CCCC3=O)s2)C1` (stereo not drawn): the “% Inhibition @ 10 uM” value is 0.623%.

Turning to `CC1CCN(c2nc3ccc(C(=O)NCCN4CCOCC4)cc3s2)CC1`, the “% Inhibition @ 10 uM” value was found to be 5.73%.

As for `CC1CCc2c(C(=O)NCCCN3CCOCC3)csc2C1` (stereo not drawn), the “% Inhibition @ 10 uM” value was -3.21%.

For the compound `COC(=O)NC(c1ccccc1)c1ccccc1`, the “% Inhibition @ 10 uM” value was -3.24%.

Take `O=C(NCCSCc1ccco1)c1ccc(CSc2ccccc2)cc1`: the “% Inhibition @ 10 uM” value is -3.14%.

As for `Cc1ccc(Cn2c(=O)c3ccccc3n3c(CCC(=O)NCCC(C)C)nnc23)cc1`, the “% Inhibition @ 10 uM” value is listed as 4.16%.

Consider `CCc1oc(C(=O)OC)cc1CNC(N)=O`, for which the “% Inhibition @ 10 uM” value turned out to be 0.883%.

On to `Cc1cccc(N2CCN(c3ccc(NC(=O)C4CC=CCC4C(=O)O)cc3)CC2)c1` (stereo not drawn), for which the “% Inhibition @ 10 uM” value was -3.43%.

For `CN(C(=O)c1ccc(CNS(=O)(=O)c2ccc(F)cc2)cc1)C1CCCCC1`, the “% Inhibition @ 10 uM” value amounted to 0.718%.

As to `COc1cc(C2CC(=O)NC3=C2C(=O)CC(C)(C)C3)cc(OC)c1O` (stereo not drawn), the “% Inhibition @ 10 uM” value is on record as 12.4%.

As for `COC(=O)C1=C(C)OC(N)=C(C#N)C1c1cc(CSc2nnc(N)s2)c(C)s1` (stereo not drawn), the “% Inhibition @ 10 uM” value is 5.93%.

For the compound `CCOc1ccccc1/C=c1\sc2nnc(-c3cccc(C)c3)n2c1=O`, the “% Inhibition @ 10 uM” value is -7.71%.

For the compound `O=C(Cn1cc2c(n1)CCCC2)NCCCc1ccccc1`, the “% Inhibition @ 10 uM” value was determined as 0.137%.

Turning to `C=CCSc1nnc(COc2ccccc2)o1`, the “% Inhibition @ 10 uM” value is -4.91%.

With `O=C(CC1Sc2ccc(C(F)(F)F)cc2NC1=O)Nc1ccc(F)cc1` (stereo not drawn), the “% Inhibition @ 10 uM” value is on record as -5.34%.

Take `CSc1ccc(CCNCc2c(C(=O)O)c(C)n(Cc3cccc(C)c3)c2C)cc1`: the “% Inhibition @ 10 uM” value is given as -7.6%.

For `Cc1cccnc1NC(=O)CCc1nc2cccnc2n1Cc1cccs1`, the “% Inhibition @ 10 uM” value was -9.07%.

In the case of `COc1cc(OC)cc(C(=O)NC2CCCCCCC2)c1`, the “% Inhibition @ 10 uM” value is -2.58%.

As to `CCC1CCCCN1C(=O)Cn1c(SCc2ccccc2F)nc2cccnc21` (stereo not drawn), the “% Inhibition @ 10 uM” value is reported as -4.73%.

In the case of `CC1CN(C2CCCCC2)C(C)CC1=O` (stereo not drawn), the “% Inhibition @ 10 uM” value was -8.76%.

As for `CC(C)CC1CC2C(O1)c1ccccc1OC2(C)C` (stereo not drawn), the “% Inhibition @ 10 uM” value is 4.82%.

In the case of `Cc1ccc(NC(=O)COc2ccc(C)cc2Br)cc1`, the “% Inhibition @ 10 uM” value is on record as -5.3%.

As to `CCN1CCN(Cc2cccc(Cl)c2Cl)CC1`, the “% Inhibition @ 10 uM” value stood at 0.847%.

Turning to `O=C(O)c1cccc2cc[nH]c12`, the “% Inhibition @ 10 uM” value stood at 2.79%.

Take `O=C(c1ccc(C(F)(F)F)cc1)N1CCN(c2ccc(Cl)cc2)CC1`: the “% Inhibition @ 10 uM” value was 1.86%.

As for `CCCCN(C)S(=O)(=O)c1c(C)[nH]c(C)c1C(=O)OCC`, the “% Inhibition @ 10 uM” value came out at 0.882%.

As for `CCC(C)C(NC(=O)CN)C(=O)NC(CCc1ccccc1)C(=O)CO` (stereo not drawn), the “% Inhibition @ 10 uM” value was determined as 4.54%.

For `COc1cc2c(cc1OC)CN(Cc1ccc(C)cc1C)CC2`, the “% Inhibition @ 10 uM” value is reported as -2.81%.

Consider `CCOc1ccc(/C=C2\CN(C)CC3=C2OC(N)=C(C#N)C3c2ccc(OCC)cc2)cc1` (stereo not drawn), for which the “% Inhibition @ 10 uM” value is -0.759%.

Turning to `Oc1ccc(-c2csc(NCc3ccco3)n2)cc1`, the “% Inhibition @ 10 uM” value was -3.5%.

For the compound `Cc1cc(O)nc(SCC(=O)c2ccc(O)c(O)c2)n1`, the “% Inhibition @ 10 uM” value was found to be 0.812%.

For the compound `O=C(Nc1cccnc1)c1c(O)nc2c(c1O)CCCC2`, the “% Inhibition @ 10 uM” value was -3.93%.

For `CCOc1ccc(N2C(=O)CC(NCc3ccc(Cl)c(Cl)c3)C2=O)cc1` (stereo not drawn), the “% Inhibition @ 10 uM” value was 8.6%.
